Data published in PubChem BioAssay AID1508623 (National Center for Advancing Translational Sciences (NCATS), 2021).
The campaign covered roughly 48,000 compounds. About 450 (0.94%) were called active. Roughly 19% stayed inconclusive and do not appear here. The call rests on the fitted dose curve; in most records, active means well fitted inhibition curve with a large enough effect; inconclusive means small, poorly fitted or top-dose-only effect; inactive means no such curve, though single readings can be large or run the other way. The list shows a part of the results.

Assay: Primary qHTS for Identification of Small Molecule Inhibitors of Huntingtin Promoter Activity; further: nearly all actives have a fitted effect of over 50% in size
Settings: HEK293 HTT promoter firefly luciferase reporter (activity 0% = vehicle and -100% = no light), 24 h; series mostly up to 57.5 µM; activity change, negative = inhibition: at the top concentration
In short: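 Firefly luciferase readout (Dual-Glo, 10 min RT) after 24 h, 37 °C compound exposure (final up to 57.5 uM) of HEK293 reporter cells cultured 24 h beforehand; PTC124 at 50 uM final as control inhibitor; activity scaled vehicle 0%, zero RLU -100%.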

Activity change, negative = inhibition, inactive:
COc1ccccc1C(=O)Nc1nnc(S(=O)(=O)N2CCCCCC2)s1 -29.1%
COC(=O)c1c(C)sc(-c2c(-c3cccc(OC)c3)[nH]c3c2c(=O)[nH]c(=O)n3C)c1O 0%
CC(=O)Nc1ccc(S(=O)(=O)NC2(C(F)(F)F)NC(=O)N(c3ccc(Cl)cc3)C2=O)cc1 (stereo not given) -34.1% [at 11.5 µM]
COc1ccc(C(=O)N2CCc3cc(OC)c(OC)cc3C2COc2ccccc2OC)cc1 (stereo not given) -24.7%
COc1ccc(C)c2sc(N(Cc3cccnc3)C(=O)CCc3ccccc3)nc12 -24.4%
CCCn1c(=O)c2sccc2n2c(CCCC(=O)Nc3ccc(C)c(F)c3)nnc12 -11.7%
O=C(Nc1ccc(Cl)c(Cl)c1)C1CC1 -0.179%
COc1ccc(-c2noc(CN3CCN(c4ccccc4OC)CC3)n2)cc1OC -22.5%
Cc1ccc(C(=O)COC(=O)c2cc(-c3ccc(Cl)cc3)nc3ccccc23)cc1 -4.94%
Cc1noc2nc(C(=O)O)nc(N3CCCCC3)c12 -5.16%
Cn1cc(S(=O)(=O)c2ccccc2)c(=O)c2cc(F)c(N3CCCCC3)cc21 -27.9%
CCc1nnc(SCC(=O)Nc2cc(Cl)c(OC)cc2OC)c2cc3oc(C)cc3n12 -1.87%
COc1cccc(N2CC(NC(=O)COc3ccc4ccccc4c3)CC2=O)c1 (stereo not given) -12.1%
CC(=O)c1ccc(NC(=O)CCn2nc(C)c(S(=O)(=O)N3CCC(C)CC3)c2C)cc1 -24.7%
CC1CCC(NC(=O)Cn2ncc3c4ccccc4n(Cc4ccc(Cl)cc4)c3c2=O)CC1 (stereo not given) 6.1%
Cc1ccc(-n2c(=O)c3ccc(C(=O)NCc4ccco4)cc3n(Cc3cccc(Cl)c3)c2=O)cc1 -11.8%
CC(C)c1cnc2c(c1SCc1cccc(C(F)(F)F)c1)c(=O)n(C)c(=O)n2C -1.26%
Cc1cccc(-n2c3nc(=O)n(C)c(=O)c-3cc3c(Cl)cccc32)c1C -5.79%
CC(C)CCNC(=O)CSCc1cnn(-c2ccccc2)c1-n1cccc1 -23%
CCc1nc(SCC(=O)Nc2ccc(NC(C)=O)cc2)n[nH]1 -8.3%
COC(=O)c1ccccc1NC(=O)Cc1noc2ccc(C)cc12 -9.04%
COc1ccc(NC(=O)Cn2c(=O)n(Cc3nc(-c4ccccc4)no3)c(=O)c3cc4c(cc32)OCO4)cc1Cl -15.1%
Cc1cccn2c(=O)cc(COc3cccc(NC(=O)c4ccccc4F)c3)nc12 4.84%
COc1ccc(CNc2ncnc3c2nnn3C)cc1 -9.62%
Cc1nn(CC(=O)NCc2ccc(OC(C)C)cc2)c(=O)c2c(C)n(-c3ccc(Cl)cc3)nc12 1.22%
COc1ccc(CN2C(=O)C(NC(=O)c3ccccc3C)(C(F)(F)F)N=C2c2ccccc2)cc1 (stereo not given) -24.1%
CCc1ccccc1NC(=O)Cn1nnc(C(=O)Nc2ccc(C)c(F)c2)c1N 1.22%
Cc1ccc2oc(-c3ccc(Cl)c(NC(=O)c4ccc(-c5ccccc5[N+](=O)[O-])o4)c3)nc2c1 20.8%
CCCCCOc1ccc(C2c3c(oc4ccccc4c3=O)C(=O)N2c2nc(C)c(C)s2)cc1OCC (stereo not given) 6.48%
COc1ccccc1CCNc1ncnc2c1nnn2C -12.1%
COc1ccc(C)cc1NC(=O)c1ccc2c(Cl)c3c(nc2c1)CCC3 6.03%
Cn1nc(C(=O)N2CCN(c3ccccc3)CC2)c2c1-c1ccccc1S(=O)(=O)C2 -7.78%
COc1ccc(S(=O)(=O)c2c(SC)nn(Cc3ccccc3C)c2NC(C)=O)cc1 -27.6%
O=C(Nc1ccc(O)cc1)c1cccc(S(=O)(=O)N2CCOCC2)c1 -0.561%
O=C(CSc1nc2c([nH]c3ccccc32)c(=O)n1-c1ccccc1)N1CCCC1 -6.07%
Cc1ccc(OCC(=O)Nc2ccc3nn(-c4ccc(Cl)cc4)nc3c2)cc1 40.8%
O=c1c2oc3ccccc3c2n(Cc2ccccc2)c(=O)n1Cc1ccc2c(c1)OCO2 -2.89%
COc1cc(C2CC(=O)Nc3c2c(=O)[nH]c2ncnn32)ccc1O (stereo not given) -5.55%
CCOC(=O)C1CCCN(C(=O)c2ccc3c(c2)N(Cc2ccccc2)C(=O)c2ccccc2S3=O)C1 (stereo not given) -13.1%
COc1ccc2oc(=O)cc(CN3CCN(c4ccccc4F)CC3)c2c1 -0.388%
CCCCc1nn2c(=O)cc(COC(=O)c3ccccc3NC(=O)c3ccccc3OC)nc2s1 -21.6%
COc1cccc(NS(=O)(=O)c2ccc3[nH]cc(C(=O)N(C)C4CCCCC4)c(=O)c3c2)c1 3.44%
CCCC(=O)N1c2nc(C(C)C)nn2C2(CCCCC2)[C@@H]2CCCC[C@@H]21 -6.44%
COc1cc2c(cc1OC)n(CC(=O)c1ccc(F)cc1)c(=O)n1nc(CCn3nc(C)cc3C)nc21 16.3%
COc1cccc(CNC(=O)c2ccc(NC(=O)N3CCCCc4ccccc43)cc2)c1 -8.29%
O=C(Nc1cccc(Cl)c1)c1csnn1 3.44%
Cc1ccc(-c2nc(SCC(=O)NCC3CCCO3)c(-c3ccc(C)cc3)[nH]2)cc1 (stereo not given) -7.58%
NC(=O)c1cc(S(=O)(=O)NCC2CCC(C(=O)Nc3ccc(Cl)cc3)CC2)cs1 (stereo not given) -34.5%
COC(=O)c1c(NC(=O)c2cc(=O)c3c(C)cc(C)cc3o2)sc2c1CCCC2 10.3%
Cc1ccc(-n2ncc3c(N4CCN(c5ccccc5)CC4)ncnc32)cc1C -8.85%
COCCn1c(C)cc(O)c(C(c2ccccc2)N2CCC(C)CC2)c1=O (stereo not given) -12.4%
OC[C@@H](O)[C@@H](O[C@@H]1O[C@H](CO)[C@H](O)[C@H](O)[C@H]1O)[C@H](O)[C@@H](O)CO 6.34%
CCc1ccccc1Nc1cc(C(=O)NCc2ccc(C)cc2)c2ccccc2n1 -8.39%
COc1ccc(N2C(=O)CSC23C(=O)N(C)c2ccccc23)cc1Cl (stereo not given) -25.3%
CCOC(=O)N1CCN(C(=O)c2ccc3c(c2)N(Cc2ccccc2F)C(=O)c2ccccc2S3=O)CC1 (stereo not given) -15.8%
O=C(c1c2c(nc3ccccc13)C(=O)N(C1CCCCC1)C2)N1CCN(c2ccc(F)cc2)CC1 -20.1%
CCOC(=O)c1c(S(=O)(=O)N2CCCC(C(=O)Nc3ccc(OCC)cc3)C2)c(C)n(C)c1C (stereo not given) -11.3%
Cc1ccc(S(=O)(=O)c2cn(Cc3cccc(F)c3)c3cc(N4CCCC4)c(F)cc3c2=O)cc1 -4.93%
COc1ccc(C)cc1Nc1nc2c(S(=O)(=O)c3cccc(Cl)c3)nnn2c2ccsc12 -17.1%
CCCOc1ccccc1-c1nc(SCC(=O)c2ccccc2)n[nH]1 -33.5%
CCN1CCN(CCCNC(=O)c2ccc3nc(Cc4ccc(OC)cc4)oc3c2)CC1 -9.88%
Cc1cc(C)n(C(C)CC(=O)NCc2ccccc2C)n1 (stereo not given) 8.44%
COc1ccc(Br)cc1C(=O)Nc1ccc2oc(-c3cccnc3)nc2c1 5.48%
CC(=O)Nc1ccc(S(=O)(=O)N2CCC(c3ccncc3)CC2)cc1 -12.6%
CCCCN(CCCC)c1ncnc2c1cnn2-c1cccc(C)c1 -21.6%
Cc1ccccc1C(=O)c1cccn1CC(=O)NCc1ccc(Cl)cc1 2.72%
COc1ccccc1CNC(=O)Cc1c(C)c2c(cc(C)c3c(C)c(C)oc32)oc1=O -1.56%
Cc1ccc2c(CN3CCN(Cc4ccccc4Cl)CC3)cc(=O)oc2c1 -6.92%
COc1ccc(CCNC(=O)CCCn2c(=O)c3cccn3c3cccnc32)cc1OC 7.59%
COc1ccc(C2CC(=O)Nc3c2c(=O)nc2c(C)cccn32)cc1OC (stereo not given) -9.62%
CCN(CC)c1nn2c(=O)c(C(=O)NCCc3ccc(C)cc3)cnc2s1 -2.57%
COc1ccc(NC(=O)c2ccc(CN3C(=O)CCn4nc(C)cc43)cc2)c(OC)c1 10.1%
CCn1c2ccccc2c2nnc(N3CCN(c4ccc(F)cc4)CC3)nc21 4.86%
CCOC(=O)c1c(NC(=O)COc2cccc(C(F)(F)F)c2)sc2c1CCC(C)C2 (stereo not given) -20.7% [at 11.5 µM]
CCOC(=O)c1cc2c(=O)n3ccccc3nc2n(CC2CCCO2)c1=NC(=O)c1ccc(C(C)(C)C)cc1 (stereo not given) -8.51%
Cc1nc2sc(C(=O)N(C)Cc3ccccc3)c(NC(=O)c3ccccc3)c2c(C)c1Cl 4.12%
COc1ccc(NC(=O)CSc2cn(CC(=O)N3CCCCC3)c3ccccc23)c(OC)c1 -12.7%
Cc1cc(C)cc(Nc2ncnc3c2nc2n3CCCC2)c1 -22.2%
COc1ccc(N2CC(NC(=O)COc3ccccc3F)CC2=O)cc1OC (stereo not given) -5.78%
CC(C)CCNC(=O)CN1C(=O)CCn2nc(-c3cn(C)c4ccccc34)cc21 12.3%
COc1ccc(C)c2sc(NC(=O)c3ccc(S(=O)(=O)N4CCCCC4)cc3)nc12 -5.04%
CCCN1CCN(CCCNC(=O)c2cc3c(Cl)nc4ccccc4c3s2)CC1 -16.9%
CCCOc1ccc(/C=C/C(=O)Nc2sc(C)c(C)c2C(=O)OCC)cc1OC -9.78%
Cc1nc(S(=O)(=O)N2CCN(c3ccc(Cl)cc3)CC2)cn1C -7.56%
Cc1nnc(SCc2cc(=O)c3ccccc3[nH]2)s1 -13%
CCOc1ccc(CCNC(=O)c2ccc(-c3nc(CSc4ccc(C)cc4)c(C)o3)cc2)cc1 -23.9%
CCN(Cc1nc(-c2cccc(C)c2)no1)S(=O)(=O)c1ccc(C)cc1 -29.6%
Cc1cccc(C)c1NC(=O)CN1C(=O)CCSc2ccc(S(=O)(=O)N3CCCC3)cc21 -21.8%
Cc1ccc(C)c(N2C(=O)N(Cc3c(F)cccc3Cl)c3ccccc3S2(=O)=O)c1 -13.6%
COc1ccc(N(CC(=O)Nc2ccc(C)c(C)c2)S(=O)(=O)c2ccc(C)cc2)cc1OC -18%
COC(=O)c1cc(NC(=O)Nc2ccc3snnc3c2)cc(C(=O)OC)c1 -11.8%
Cc1ccccc1-c1noc(-c2ccc(N3CCN(c4ccccc4)CC3)c([N+](=O)[O-])c2)n1 -3.05%
CC1CCN(C(=O)c2ccc3c(c2)N(Cc2ccccc2F)C(=O)c2ccccc2S3(=O)=O)CC1 -28.3%
Cc1ccc(NC(=O)C(=O)NCC(c2cccnc2)N2CCOCC2)cc1 (stereo not given) -5.3%
Cc1c(Cl)cccc1-n1ncc(C(=O)N2CCN(C)CC2)c1C1CCN(C(=O)OC(C)(C)C)CC1 -5.66%
